# Measured values reported in the supplement of paper PMC8728848.
# Some of the results follow.
# B1: EEA (Euonymus europaeus) (protein)
# chain: MASTIIATGPTYRVYCRAAPNYNMIVGKGVAFLAPIDETNELQYWYKDDTYSYIKDEAGLPAFSLVNKATGLTLKHSNHHPVPVKLVTYNPNVVDESVLWSQADDRGDGYSAIRSLTNPASHLEAAPLNDWSYNGAIIMGGVWIDAYNQQWKIEPHTG
# Tests used:
# Assay in all cases: glycan array binding signal (z-score within array); higher = stronger binding
# Conditions in all cases: glycan notation: IUPAC condensed, linker removed
# [1] = target: Neu5Ac(a2-6)Gal(b1-4)GlcNAc(b1-3)GalNAc
# Summary of the method: (§1)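 Glycan array data came from 3228 arrays in the Consortium for Functional Glycomics database, and only arrays with an available protein sequence were kept. Glycan names were put into IUPAC-condensed notation, and columns mapping to the same glycan were averaged. The binding signal is a within-array Z-score, averaged across arrays of one protein sequence run at different concentrations or buffers and across linkers. A negative Z-score can be read as non-binding.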
# [2] = target: Neu5Ac(a2-6)Gal(b1-4)GlcNAc(b1-3)[Neu5Ac(a2-6)Gal(b1-4)GlcNAc(b1-6)]GalNAc
# Summary of the method: as §1
# [3] = target: Neu5Ac(a2-6)Gal(b1-4)GlcNAc(b1-6)GalNAc
# Summary of the method: as §1
# [4] = target: Neu5Ac(a2-6)Gal(b1-4)GlcNAc(b1-6)[Gal(b1-3)GlcNAc(b1-3)]Gal(b1-4)Glc
# Summary of the method: as §1
# [5] = target: Neu5Ac(a2-6)Gal(b1-4)GlcNAc(b1-6)[Gal(b1-3)]GalNAc
# Summary of the method: as §1
# [6] = target: Neu5Ac(a2-6)Gal(b1-4)GlcNAc6S
# Summary of the method: as §1
# Neu5Ac(a2-6)GalNAc = target: Neu5Ac(a2-6)GalNAc
# Summary of the method: as §1
# [7] = target: Neu5Ac(a2-6)GalNAc(b1-4)GlcNAc
# Summary of the method: as §1
# [8] = target: Neu5Ac(a2-6)GalNAc(b1-4)GlcNAc6S
# Summary of the method: as §1
# [9] = target: Neu5Ac(a2-6)GlcNAc(b1-4)GlcNAc
# Summary of the method: as §1
# [10] = target: Neu5Ac(a2-6)GlcNAc(b1-4)GlcNAc(b1-4)GlcNAc
# Summary of the method: as §1
# Neu5Ac(a2-8)Neu5Ac = target: Neu5Ac(a2-8)Neu5Ac
# Summary of the method: as §1
# [11] = target: Neu5Ac(a2-8)Neu5Ac(a2-3)Gal(b1-3)GalNAc(b1-4)[Neu5Ac(a2-3)]Gal(b1-4)Glc
# Summary of the method: as §1
# [12] = target: Neu5Ac(a2-8)Neu5Ac(a2-3)Gal(b1-3)GalNAc(b1-4)[Neu5Ac(a2-8)Neu5Ac(a2-3)]Gal(b1-4)Glc
# Summary of the method: as §1
# [13] = target: Neu5Ac(a2-8)Neu5Ac(a2-3)Gal(b1-4)Glc
# Summary of the method: as §1
# [14] = target: Neu5Ac(a2-8)Neu5Ac(a2-3)Gal(b1-4)GlcNAc
# Summary of the method: as §1
# [15] = target: Neu5Ac(a2-8)Neu5Ac(a2-3)[Gal(b1-3)GalNAc(b1-4)]Gal(b1-4)Glc
# Summary of the method: as §1
# [16] = target: Neu5Ac(a2-8)Neu5Ac(a2-3)[GalNAc(b1-4)]Gal(b1-4)Glc
# Summary of the method: as §1
# [17] = target: Neu5Ac(a2-8)Neu5Ac(a2-8)Neu5Ac
# Summary of the method: as §1
# [18] = target: Neu5Ac(a2-8)Neu5Ac(a2-8)Neu5Ac(a2-3)Gal(b1-4)Glc
# Summary of the method: as §1
# [19] = target: Neu5Ac(a2-8)Neu5Ac(a2-8)Neu5Ac(a2-3)[Gal(b1-3)GalNAc(b1-4)]Gal(b1-4)Glc
# Summary of the method: as §1
# [20] = target: Neu5Ac(a2-8)Neu5Ac(a2-8)Neu5Ac(a2-3)[GalNAc(b1-4)]Gal(b1-4)Glc
# Summary of the method: as §1
# [21] = target: Neu5Ac(a2-8)Neu5Ac(a2-8)Neu5Ac(a2-8)Neu5Ac(a2-3)[GalNAc(b1-4)]Gal(b1-4)Glc
# Summary of the method: as §1
# [22] = target: Neu5Ac(a2-8)Neu5Gc(a2-3)Gal(b1-4)GlcNAc
# Summary of the method: as §1
# Neu5Ac(b1-6)GalNAc = target: Neu5Ac(b1-6)GalNAc
# Summary of the method: as §1
# [23] = target: Neu5Ac(b2-6)Gal(b1-4)GlcNAc
# Summary of the method: as §1
# Neu5Ac(b2-6)GalNAc = target: Neu5Ac(b2-6)GalNAc
# Summary of the method: as §1
# [24] = target: Neu5Ac9Ac(a2-3)Gal(b1-3)GlcNAc
# Summary of the method: as §1
# [25] = target: Neu5Ac9Ac(a2-3)Gal(b1-4)GlcNAc
# Summary of the method: as §1
# [26] = target: Neu5Ac9Ac(a2-6)Gal(b1-4)GlcNAc
# Summary of the method: as §1
# [27] = target: Neu5Gc(a2-3)Gal(b1-3)GlcNAc
# Summary of the method: as §1
# [28] = target: Neu5Gc(a2-3)Gal(b1-3)[Fuc(a1-4)]GlcNAc
# Summary of the method: as §1
# Neu5Gc(a2-3)Gal(b1-4)Glc = target: Neu5Gc(a2-3)Gal(b1-4)Glc
# Summary of the method: as §1
# [29] = target: Neu5Gc(a2-3)Gal(b1-4)GlcNAc
# Summary of the method: as §1
# [30] = target: Neu5Gc(a2-3)Gal(b1-4)GlcNAc(b1-3)Gal(b1-4)GlcNAc(b1-2)Man(a1-3)[Neu5Gc(a2-3)Gal(b1-4)GlcNAc(b1-3)Gal(b1-4)GlcNAc(b1-2)Man(a1-6)]Man(b1-4)GlcNAc(b1-4)GlcNAc
# Summary of the method: as §1
# [31] = target: Neu5Gc(a2-3)Gal(b1-4)[Fuc(a1-3)]GlcNAc
# Summary of the method: as §1
# [32] = target: Neu5Gc(a2-3)Gal(b1-4)[Fuc(a1-4)]GlcNAc
# Summary of the method: as §1
# [33] = target: Neu5Gc(a2-6)Gal(b1-4)GlcNAc
# Summary of the method: as §1
# Neu5Gc(a2-6)GalNAc = target: Neu5Gc(a2-6)GalNAc
# Summary of the method: as §1
# [34] = target: Neu5Gc(a2-8)Neu5Ac(a2-3)Gal(b1-4)GlcNAc
# Summary of the method: as §1
# [35] = target: Neu5Gc(a2-8)Neu5Gc(a2-3)Gal(b1-4)GlcNAc
# Summary of the method: as §1
# [36] = target: Neu5Gc(a2-8)Neu5Gc(a2-3)Gal(b1-4)GlcNAc(b1-3)Gal(b1-4)GlcNAc
# Summary of the method: as §1
# [37] = target: Neu5Gc(a2-8)Neu5Gc(a2-6)Gal(b1-4)GlcNAc
# Summary of the method: as §1
# [38] = target: Neu5Gc(b2-6)Gal(b1-4)GlcNAc
# Summary of the method: as §1
binder,measurement,setting,value
B1,glycan array binding signal (z-score),[1],-0.169
same,glycan array binding signal (z-score),[2],-0.086
same,glycan array binding signal (z-score),[3],-0.211
same,glycan array binding signal (z-score),[4],-0.23
same,glycan array binding signal (z-score),[5],-0.067
same,glycan array binding signal (z-score),[6],-0.213
same,glycan array binding signal (z-score),Neu5Ac(a2-6)GalNAc,-0.325
same,glycan array binding signal (z-score),[7],-0.171
same,glycan array binding signal (z-score),[8],-0.23
same,glycan array binding signal (z-score),[9],-0.235
same,glycan array binding signal (z-score),[10],-0.244
same,glycan array binding signal (z-score),Neu5Ac(a2-8)Neu5Ac,-0.192
same,glycan array binding signal (z-score),[11],-0.231
same,glycan array binding signal (z-score),[12],-0.154
same,glycan array binding signal (z-score),[13],-0.341
same,glycan array binding signal (z-score),[14],-0.253
same,glycan array binding signal (z-score),[15],-0.236
same,glycan array binding signal (z-score),[16],-0.154
same,glycan array binding signal (z-score),[17],-0.276
same,glycan array binding signal (z-score),[18],-0.256
same,glycan array binding signal (z-score),[19],-0.175
same,glycan array binding signal (z-score),[20],-0.063
same,glycan array binding signal (z-score),[21],-0.159
same,glycan array binding signal (z-score),[22],-0.119
same,glycan array binding signal (z-score),Neu5Ac(b1-6)GalNAc,-0.319
same,glycan array binding signal (z-score),[23],-0.235
same,glycan array binding signal (z-score),Neu5Ac(b2-6)GalNAc,-0.246
same,glycan array binding signal (z-score),[24],-0.218
same,glycan array binding signal (z-score),[25],-0.029
same,glycan array binding signal (z-score),[26],-0.172
same,glycan array binding signal (z-score),[27],-0.254
same,glycan array binding signal (z-score),[28],-0.224
same,glycan array binding signal (z-score),Neu5Gc(a2-3)Gal(b1-4)Glc,-0.084
same,glycan array binding signal (z-score),[29],-0.196
same,glycan array binding signal (z-score),[30],-0.183
same,glycan array binding signal (z-score),[31],-0.232
same,glycan array binding signal (z-score),[32],-0.482
same,glycan array binding signal (z-score),[33],-0.14
same,glycan array binding signal (z-score),Neu5Gc(a2-6)GalNAc,-0.193
same,glycan array binding signal (z-score),[34],-0.251
same,glycan array binding signal (z-score),[35],-0.245
same,glycan array binding signal (z-score),[36],-0.241
same,glycan array binding signal (z-score),[37],-0.222
same,glycan array binding signal (z-score),[38],-0.224
